Reference: the supplement of paper PMC4967469
Lines with a small IC50 respond at low doses; where the fit passes the top or lowest dose, that dose stands as a limit. AUC sums up the same curve from the lowest dose to the 256-fold higher top dose: 1 means no effect, lower means more sensitive. Where the top dose is marked as inferred, it is not printed in the source and was worked back from the curve model.

compound: COc1ncc(-c2ccc3nccc(-c4ccnnc4)c3c2)cc1NS(=O)(=O)c1ccc(F)cc1F [GSK2126458]; experiment: Viability of human cancer cell lines after 72 h of drug (GDSC screen); conditions: top dose inferred
Experimental: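 Human cancer cell lines in 384-well plates, medium with 10% serum, drug for 72 h over a 256-fold dose range (nine 2-fold or five 4-fold steps up to the top dose). Adherent lines were fixed and stained with the nucleic acid dye Syto60, suspension lines read with resazurin; signal relative to control wells, capped at 0 and 100%. One two-parameter sigmoid per drug and line, fitted in a mixed model over all curves with the slope shared within a line.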

Cell Line	AUC	IC50
RCC-FG2 (kidney, adherent, top dose 0.128 µM)	0.77	62.1 nM
RCC-JF (kidney, adherent, top dose 0.128 µM)	0.6	15.6 nM
RCC-JW (kidney, adherent, top dose 0.128 µM)	0.445	5.62 nM
RCC-MF (kidney, adherent, top dose 0.128 µM)	0.617	18.5 nM
RCM-1 (large intestine, adherent, top dose 0.128 µM)	0.847	126 nM
RD (rhabdomyosarcoma, adherent, top dose 0.128 µM)	0.645	21 nM
REH (B-cell leukaemia, suspension, top dose 0.128 µM)	0.309	2.39 nM
RERF-GC-1B (stomach, adherent, top dose 0.128 µM)	0.779	58.5 nM
RERF-LC-KJ (lung adenocarcinoma, adherent, top dose 0.128 µM)	0.84	92.2 nM
RERF-LC-MS (lung adenocarcinoma, adherent, top dose 0.128 µM)	0.822	77.4 nM
RERF-LC-Sq1 (lung squamous cell carcinoma, adherent, top dose 0.128 µM)	0.803	103 nM
RF-48 (stomach, adherent, top dose 0.128 µM)	0.618	17.6 nM
RH-1 (rhabdomyosarcoma, adherent, top dose 0.128 µM)	0.782	44.5 nM
RH-41 (rhabdomyosarcoma, adherent, top dose 0.128 µM)	0.909	128 nM
RKN (ovary, adherent, top dose 0.128 µM)	0.477	6.9 nM
RKO (large intestine, adherent, top dose 1.024 µM)	0.444	45.6 nM
RL95-2 (endometrium, adherent, top dose 0.128 µM)	0.958	> 128 nM
RL (B-cell lymphoma, suspension, top dose 0.128 µM)	0.528	9.48 nM
RMG-I (ovary, adherent, top dose 0.128 µM)	0.545	10.9 nM
RO82-W-1 (thyroid, adherent, top dose 0.128 µM)	0.973	> 128 nM

Cell Line	AUC	IC50
ROS-50 (B-cell leukaemia, suspension, top dose 0.128 µM)	0.786	72.1 nM
RPMI-2650 (head and neck, adherent, top dose 0.128 µM)	0.766	50.9 nM
RPMI-6666 (Hodgkin lymphoma, suspension, top dose 0.128 µM)	0.357	2.96 nM
RPMI-7951 (melanoma, adherent, top dose 0.128 µM)	0.611	16 nM
RPMI-8226 (myeloma, suspension, top dose 0.128 µM)	0.625	16.8 nM
RPMI-8402 (T-cell lymphoblastic leukaemia, suspension, top dose 1.024 µM)	0.084	< 4 nM
RPMI-8866 (chronic myeloid leukaemia, suspension, top dose 0.128 µM)	0.808	60.6 nM
RS4-11 (leukaemia, suspension, top dose 0.128 µM)	0.161	0.83 nM
RT4 (bladder, adherent, top dose 0.128 µM)	0.91	> 128 nM
RT-112 (bladder, adherent, top dose 0.128 µM)	0.653	22 nM
RVH-421 (melanoma, adherent, top dose 0.128 µM)	0.791	82.5 nM
RXF393 (kidney, adherent, top dose 0.128 µM)	0.773	70.2 nM
Raji (Burkitt lymphoma, suspension, top dose 0.128 µM)	0.912	> 128 nM
Ramos-2G6-4C10 (Burkitt lymphoma, suspension, top dose 0.128 µM)	0.484	7.27 nM
SAS (head and neck, adherent, top dose 0.128 µM)	0.748	45.5 nM
SAT (head and neck, adherent, top dose 0.128 µM)	0.735	55.5 nM
SBC-1 (small cell lung carcinoma, suspension, top dose 0.128 µM)	0.661	22 nM
SBC-3 (small cell lung carcinoma, adherent, top dose 0.128 µM)	0.267	1.87 nM
SBC-5 (small cell lung carcinoma, adherent, top dose 0.128 µM)	0.965	> 128 nM
